Source: the supplement of paper PMC12217912
The list shows a part of the results. Sequences were assembled here from the parent chain. Inactive controls read about 0.05.

B1: TEV protease; numbered along this chain (parent)
chain: MGESLFKGPRDYNPISSSICHLTNESDGHTTSLYGIGFGPFIITNKHLFRRNNGTLVVQSLHGVFKVKDTTTLQQHLVDGRDMIIIRMPKDFPPFPQKLKFREPQREERICLVTTNFQTKSMSSMVSDTSCTFPSGDGIFWKHWIQTKDGQCGSPLVSTRDGFIVGIHSASNFTNTNNYFTSVPKNFMELLTNQEAQQWVSGWRLNADSVLWGGHKVFMVKPEEPFQPVKEATQL

Variants of: B1
Test: raw area under fraction-flipped curve 0-4 h after induction (AUC4h, not background-subtracted), DNA-recorder readout of cleavage of the substrate (dimensionless); higher = more cleavage of the substrate by the protease variant
Conditions: temperature: 34 °C; time window: 0-4 h after rhamnose induction
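Further: Bxb1 expression induced with 0.2% (w/v) L-rhamnose at OD600 near 0.5, cultures sampled hourly, flipped fraction per protease–substrate barcode pair counted by paired-end Illumina sequencing.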

Variant | area with substrate ENLYFES | area with substrate ENLYFFS | area with substrate ENLYFGS | area with substrate ENLYFIS | area with substrate ENLYFMS | area with substrate ENLYFPS | area with substrate ENLYFRS | area with substrate ENLYFSS | area with substrate ENLYFTS | area with substrate ENLYFVS | area with substrate ENLYFWS | area with substrate ENLYFDS | area with substrate ENLYFHS | area with substrate ENLYFKS | area with substrate ENLYFLS | area with substrate ENLYFYS | area with substrate ENLYFNS
MGESLFKGPRDYNPISSSICHLTNESDGHTTSLYGIGFGPFIITNKHLFRRNNGTLVVQSLHGVFKVKITTTLQQHLVDGRDMIIIRMPKDFPPFPQKLKFREPQREERICLVTTNFQTKSMSSMVSDTSCTFPSGDGIFWKHWIQTKDGQCGSPLVSTRDGFIVGIHSASNFTNTNNYFTSVPKNFMELLTNQEAQQWVSGWRLNADSVLWGGHKVFMVKPEEPFQPVKEATQL [D69I] | 0.0564 | 0.0671 | 0.0545 | 0.0379 | 0.0565 | 0.0499 | 0.0562 | 0.0577 | 0.0517 | 0.0414 | 0.075 | – | – | – | – | – | –
MGESLFKGPRDYNPISSSICHLTNESDGHTTSLYGIGFGPFIITNKHLFRRNNGTLVVQSLHGVFKVKDTTTLQQHLVDGRDMIIIRMPKDFPPFPQKLKFREPQREERICLVTTNFQTKSMSSMVSDTSCTFPSGDGIFWKHWIQTKDGQCGSPLVSTRDGFIVGIHSASNFTNTNNYFTSVPKNFMELLTNQEAQQWVSGWRLNADSVLWGGHKVFMVKPCEPFQPVKEATQL [E223C] | 0.0681 | 0.0792 | 0.0537 | 0.0595 | 0.0624 | 0.068 | 0.0686 | 0.0653 | 0.0538 | 0.0622 | – | 0.092 | 0.0753 | 0.0739 | 0.0632 | 0.0545 | –
MGESLFKGPRDYNPISSSICHLTNESDGHTTSLYGIGFGPFIITNKHLFRRNNGTLVVQSLHGVFKVKDTTTLQQHLVDGRDMIIIRMPKDFPPFPQKLKFQEPQREERICLVTTNFQTKSMSSMVSDTSCTFPSGDGIFWKHWIQTKDGQCGSPLVSTRDGFIVGIHSASNFTNTNNYFTSVPKNFMELLTNQEAQQWVSGWRLNADSVLWGGHKVFMVKPEEPFQPVKEATQL [R102Q] | 0.0497 | 0.0501 | – | 0.0465 | 0.0443 | 0.0473 | – | 0.035 | 0.0334 | – | – | – | – | 0.0097 | – | 0.0489 | 0.0502
MGESLFKGPRDYNPISSSICHLTNESDGHTTSLYGIGFGPFIITNKHLFRRNNGTLVVQSLHGVFKVKDTTTLQQHLVDGRDMIIIRMPKDFPPFPQKLKFREPQREERICLVTTNFQTKSMSSMVSDTSCTFPSGDGIFWKHWIQTKDGQCGSPLVSTRDGFIVGIHSASNFTNTNNYFTSVPKWFMELLTNQEAQQWVSGWRLNADSVLWGGHKVFMVKPEEPFQPVKEATQL [N186W] | 0.0679 | 0.0643 | – | 0.0522 | 0.0565 | 0.0613 | 0.0541 | 0.0655 | 0.0553 | – | 0.044 | 0.0692 | 0.0567 | – | – | – | –
MGESLFKGPRDYNPISSSICHLTNESDGHTTSLYGIGFGPFIITNKHLFRRNNGTLVVQSLHGVFKVKDTTTLQQHLVDGRDMIIIRMPKDFPPFPQKLKFREPQREERICLVTTNFQTKSMSSMVSDTSCTFPSGDGIFWKHWIQTKDGQCGSPLVSTRDGFIVGIHSASNFTNTNNYFTSVPKNFMELLTNQEAQQWVSGWRLNADSVLWGGHKVFMAKPEEPFQPVKEATQL [V220A] | 0.0592 | 0.0708 | 0.0661 | 0.0582 | 0.0669 | 0.0518 | – | – | – | – | 0.0578 | 0.057 | 0.0639 | 0.0653 | 0.0595 | 0.0618 | –
MGESLFKGPRDYNPISSSICHLTNESDGHTTSLYGIGFGPFIITNKHLFRRNNGTLVVQSLHGVFKMKDTTTLQQHLVDGRDMIIIRMPKDFPPFPQKLKFREPQREERICLVTTNFQTKSMSSMVSDTSCTFPSGDGIFWKHWIQTKDGQCGSPLVSTRDGFIVGIHSASNFTNTNNYFTSVPKNFMELLTNQEAQQWVSGWRLNADSVLWGGHKVFMVKPEEPFQPVKEATQL [V67M] | 0.0637 | 0.035 | 0.0326 | 0.058 | 0.0782 | 0.0511 | – | – | 0.0516 | – | 0.0562 | – | 0.0708 | – | 0.0541 | 0.0567 | 0.0612
MGESLFKGPRDYNPISSSICHLTNESDGHTTSLYGIGFGPFIITNKHLFRRRNGTLVVQSLHGVFKVKDTTTLQQHLVDGRDMIIIRMPKDFPPFPQKLKFREPQREERICLVTTNFQTKSMSSMVSDTSCTFPSGDGIFWKHWIQTKDGQCGSPLVSTRDGFIVGIHSASNFTNTNNYFTSVPKNFMELLTNQEAQQWVSGWRLNADSVLWGGHKVFMVKPEEPFQPVKEATQL [N52R] | 0.0604 | – | – | 0.0527 | 0.0632 | 0.0572 | – | 0.0457 | – | 0.0623 | – | – | 0.0447 | 0.0636 | – | 0.0614 | 0.0673
MGSSLFKGPRDYNPISSSICHLTNESDGHTTSLYGIGFGPFIITNKHLFRRNNGTLVVQSLHGVFKVKDTTTLQQHLVDGRDMIIIRMPKDFPPFPQKLKFREPQREERICLVTTNFQTKSMSSMVSDTSCTFPSGDGIFWKHWIQTKDGQCGSPLVSTRDGFIVGIHSASNFTNTNNYFTSVPKNFMELLTNQEAQQWVSGWRLNADSVLWGGHKVFMVKPEEPFQPVKEATQL [E3S] | 0.108 | 0.0523 | 0.0712 | 0.054 | 0.0776 | 0.0726 | – | – | – | 0.0597 | 0.055 | – | – | 0.0518 | 0.0641 | 0.0428 | 0.0739
MGESLFKGPRDYNPISSSICHLTNESDGHTTSLYGIGFGPFIITNKHLFRRNNGTLVVQSLHGVFKVKDTTTLQQHLVDGRDMIIIRMPKDFPPGPQKLKFREPQREERICLVTTNFQTKSMSSMVSDTSCTFPSGDGIFWKHWIQTKDGQCGSPLVSTRDGFIVGIHSASNFTNTNNYFTSVPKNFMELLTNQEAQQWVSGWRLNADSVLWGGHKVFMVKPEEPFQPVKEATQL [F95G] | 0.0602 | 0.0586 | – | 0.0461 | 0.0364 | 0.0849 | 0.0412 | – | – | – | 0.0309 | – | 0.0687 | – | – | 0.0283 | –
MGESLFKGPRDYNPISSSICHLTNESDGHTTSLYGIGFGPFHITNKHLFRRNNGTLVVQSLHGVFKVKDTTTLQQHLVDGRDMIIIRMPKDFPPFPQKLKFREPQREERICLVTTNFQTKSMSSMVSDTSCTFPSGDGIFWKHWIQTKDGQCGSPLVSTRDGFIVGIHSASNFTNTNNYFTSVPKNFMELLTNQEAQQWVSGWRLNADSVLWGGHKVFMVKPEEPFQPVKEATQL [I42H] | 0.056 | – | – | 0.0494 | – | 0.0511 | 0.044 | 0.0426 | – | 0.0456 | 0.0453 | – | – | 0.0447 | – | – | –
